Data: PubChem BioAssay AID1460 (National Center for Advancing Translational Sciences (NCATS), 2008)
In all, about 270,000 compounds went through this assay and about 5,800 (2.1%) were called active. This list was built around the results that the source calls inconclusive (neither active nor inactive); the mix of calls is not that of the screen. Calls follow the shape of the dose curve; as a rule, active = well fitted inhibition curve with a large enough effect; inconclusive = small, poorly fitted or top-dose-only effect; inactive = flat fitted curve, though single readings scatter. A potency beside an inconclusive call is a rough fit, not a confirmed value.

Molecular target: Microtubule-associated protein tau (Homo sapiens) (UniProt P10636)
Chain of UniProt P10636 (P10636 whole entry, looked up): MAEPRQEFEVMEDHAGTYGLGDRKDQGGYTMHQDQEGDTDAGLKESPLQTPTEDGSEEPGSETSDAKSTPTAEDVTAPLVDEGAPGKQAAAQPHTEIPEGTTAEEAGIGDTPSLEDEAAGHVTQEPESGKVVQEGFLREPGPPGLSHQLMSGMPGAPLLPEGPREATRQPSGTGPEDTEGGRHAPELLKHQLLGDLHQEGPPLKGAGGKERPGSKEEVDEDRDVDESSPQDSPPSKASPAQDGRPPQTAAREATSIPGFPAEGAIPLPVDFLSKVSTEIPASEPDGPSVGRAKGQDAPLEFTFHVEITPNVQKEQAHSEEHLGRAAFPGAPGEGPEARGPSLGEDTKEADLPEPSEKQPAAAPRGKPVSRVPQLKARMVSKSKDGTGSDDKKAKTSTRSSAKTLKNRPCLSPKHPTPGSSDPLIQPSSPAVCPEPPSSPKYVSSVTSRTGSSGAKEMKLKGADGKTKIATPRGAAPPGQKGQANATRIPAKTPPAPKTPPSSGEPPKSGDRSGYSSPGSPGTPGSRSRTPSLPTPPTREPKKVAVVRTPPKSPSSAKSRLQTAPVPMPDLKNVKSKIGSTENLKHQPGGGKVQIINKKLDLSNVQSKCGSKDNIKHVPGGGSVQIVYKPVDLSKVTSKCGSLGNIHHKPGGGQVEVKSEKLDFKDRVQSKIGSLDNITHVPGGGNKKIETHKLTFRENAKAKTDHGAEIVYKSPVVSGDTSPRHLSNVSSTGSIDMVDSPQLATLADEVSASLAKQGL
Assay: qHTS for Inhibitors of Tau Fibril Formation, Thioflavin T Binding; also: nearly all actives have a fitted effect of over 55% in size
Conditions: recombinant tau K18 P301L (four-repeat tau fragment), heparin-induced fibrillization, ThT fluorescence; series mostly up to 57.4 µM; activity, negative = inhibition: at the top concentration
Outline: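 Heparin-induced (20 uM) aggregation of recombinant human K18 P301L tau, 15 uM unlabeled with 0.24 uM labeled, pH 7 acetate buffer, 6 hr at 37 C with compound. Fibrils quantified by 30 uM ThT fluorescence after 1 hr ambient incubation.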
% is scaled to controls: 0 for no effect and ±100 for the full control effect; potency is read from the fitted curve at half-maximal effect; tags tell the direction and shape of the fitted curve.

SMILES	Potency	activity, negative = inhibition
O=C(NC(=S)Nc1ccccc1)c1csnn1	active: 10 µM	
O=C(NC(=S)Nc1cccc(NC(=O)c2ccccc2)c1)c1cccc([N+](=O)[O-])c1	inconclusive: 17.8 µM [inhibitor, partial curve]	
COc1ccc(CSCC(=O)N/N=C/c2ccc(OCC(=O)N3CCCCC3)cc2)cc1	inconclusive: 1.12 µM [inhibitor, full curve]	
COc1ccc(N2CCN(c3nc4ccccc4nc3NS(=O)(=O)c3ccccc3)CC2)cc1	inconclusive: 14.1 µM [inhibitor, partial curve]	
Cc1ccccc1C(=O)NCC(=O)NNC(=S)NC(=O)c1ccccc1		inactive: -5.65%
O=C(O)CCCC(=O)Nc1nc2n(n1)C(c1ccc(F)cc1)CC(c1ccc(Cl)cc1)N2 (configuration not stated)		inactive: -11%
CCCCOc1ccc(C(=O)Nc2cccc(C)n2)cc1	inconclusive: 12.6 µM [inhibitor, partial curve]	
Cc1ccc(OCc2nnc(SCC(=O)Nc3ncc(C)s3)o2)cc1	inconclusive: 1.26 µM [inhibitor, full curve, poor fit]	
Cc1ccc2[nH]c(=O)c(CN(CCCN3CCOCC3)C(=O)Nc3cccc(Cl)c3)cc2c1	inconclusive: 11.2 µM [activator, partial curve]	
Clc1ccc(CCNC(c2ccc(Cl)cc2)c2nnc(-c3ccccc3)o2)cc1 (configuration not stated)		inactive: -16.4%
CCOC(=O)c1c(NC(=O)C2c3ccccc3Oc3ccccc32)sc2c1CCC(CC)C2 (configuration not stated)	inconclusive: 39.8 µM [inhibitor, single point]	
COc1ccc(N2CCN(C(=O)C(C)n3nc(C)c4sc5ccccc5c4c3=O)CC2)cc1 (configuration not stated)	inconclusive: 3.55 µM [activator, full curve]	
COc1cccc(N2C(=O)/C(=C\c3cccs3)NC2=S)c1	inconclusive: 0.0447 µM [inhibitor, full curve, poor fit]	
O=C(Nc1nc2c(F)cccc2s1)c1ccc(S(=O)(=O)N2CCCc3ccccc32)cc1		inactive: 5.5%
O=C(c1ccc(F)cc1)C1CCN(CCn2c(=O)[nH]c3ccccc3c2=O)CC1	inconclusive: 39.8 µM [inhibitor, single point]	
Cn1c(=O)c(C#N)c(-c2ccc(F)cc2)c2cc(C(=O)c3cc(Cl)cc(Cl)c3O)cnc21	active: 14.1 µM	
CN1C2CCC1/C(=C\c1ccccc1Cl)C(=O)/C2=C\c1ccccc1Cl	inconclusive: 15.8 µM [inhibitor, partial curve]	
COCCn1c(C)cc(/C=C2\NC(=S)N(C)C2=O)c1C	inconclusive: 25.1 µM [inhibitor, single point]	
CCOc1c(C=C(C#N)C#N)c2ccccc2n1CC	inconclusive: 15.8 µM [inhibitor, partial curve]	
O=C(N/N=C/c1ccc(Br)s1)c1c[nH]c2ccccc12		inactive: 12.9%
CCn1cc(C(=O)N2CCN(c3cccc(Cl)c3)CC2)c(=O)c2cc(S(=O)(=O)N3CCC(C)CC3)ccc21		inactive: -16%
C=Cc1ccc(Cn2c(C)c(CNCCc3ccc(OCC)cc3)c(C(=O)O)c2C)cc1		inactive: -13%
O=C(Oc1c(Cl)cc(Cl)c2cccnc12)c1cccs1	inconclusive: 3.98 µM [inhibitor, partial curve]	
COc1cccc(CNC(=O)Cn2nc(C)c3sc4ccccc4c3c2=O)c1OC	inconclusive: 3.98 µM [inhibitor, partial curve]	

SMILES	Potency	activity, negative = inhibition
Cc1cccc(Nc2sc(C(=O)c3ccc(Cl)cc3)c(N)c2C(N)=O)c1	inconclusive: 28.2 µM [inhibitor, single point]	
CCOc1ccccc1NC(=O)c1c(NC(=O)CNCc2ccco2)sc2c1CCC2		inactive: -4.97%
O=C(NCCCN1CCN(c2cccc(Cl)c2)CC1)c1ccc2nc(Cc3ccccc3)oc2c1	inconclusive: 39.8 µM [inhibitor, single point]	
Cc1ccc(-c2n[nH]c(=S)n2/N=C/C=C\c2ccccc2[N+](=O)[O-])cc1	inconclusive: 20 µM [inhibitor, partial curve]	
COC(=O)c1c(NS(=O)(=O)c2ccccc2)csc1C		inactive: -14%
Cc1nc(-c2cc(-c3nc(-c4ccc(C(F)(F)F)cc4)no3)no2)cs1	inconclusive: 0.562 µM [inhibitor, full curve, poor fit]	
NC(=O)c1ccccc1N/C=C/C(=O)c1ccccc1	inconclusive: 10 µM [inhibitor, partial curve]	
CC(=O)c1ccc(OC(=O)CCc2nc3ccccc3s2)cc1	active: 15.8 µM	
Cc1noc(NS(=O)(=O)c2cccc3c(N(C)C)cccc23)c1C		inactive: -10.8%
Cc1ccccc1-n1nnnc1SCc1csc(-c2ccccc2)n1		inactive: -13.7%
O=C(COc1ccc(Cl)cc1)N1CCN(c2ccc([N+](=O)[O-])c(N3CCCCC3)c2)CC1	inconclusive: 7.94 µM [inhibitor, full curve]	
Cc1ccc2c(c1)C(=O)OC(C(=O)Nc1ccccc1C(=O)O)C2 (configuration not stated)	inconclusive: 39.8 µM [inhibitor, single point]	
Cc1ccc2cc(/C=C(\C#N)C(N)=O)c(N3CCCCC3)nc2c1	inconclusive: 25.1 µM [inhibitor, partial curve]	
COc1ccc(C(CC(=O)O)NC(=O)COc2ccc(C)cc2)cc1OC (configuration not stated)		inactive: -11.4%
C/C(=N\NC(=O)CSc1nc(C)cc(C)n1)c1ccc([N+](=O)[O-])cc1	inconclusive: 15.8 µM [inhibitor, partial curve]	
CCSC1=C(C#N)C(c2ccccc2C)CC(=O)N1 (configuration not stated)		inactive: -5.87%
Cc1nc(NC(=O)c2cc3c(s2)CCCCC3)sc1C(=O)N(C)C	inconclusive: 6.31 µM [inhibitor, partial curve]	
CC1CC1c1ccc(/C=C(\C#N)C(=O)Nc2ccc(Cl)cc2Cl)o1 (configuration not stated)	inconclusive: 11.2 µM [inhibitor, partial curve]	
COC(=O)c1cc(NC(=O)C2CC=CCC2C(=O)O)cc(C(=O)OC)c1 (configuration not stated)		inactive: -13.3%
N#Cc1cn(CCCOc2ccccc2)c2ccccc12	inconclusive: 39.8 µM [inhibitor, single point]	
NC(=S)N/N=C/c1ccc(-c2ccc(SC(F)F)cc2)o1	inconclusive: 17.8 µM [inhibitor, partial curve]	
CSc1ccc(/C=C(\NC(=O)c2ccccc2)C(=O)NN)cc1	inconclusive: 31.6 µM [inhibitor, partial curve]	
COc1ccc(C)cc1NC(=O)CSc1nnc(-c2ccco2)n1N		inactive: 2.02%
Cc1ccc(C)c(NC(=O)CSc2ccc3nc(-c4ccccc4)cn3n2)c1		inactive: -4.86%

SMILES	Potency	activity, negative = inhibition
COC(=O)CCN(c1ccccc1)C(CNS(=O)(=O)c1ccccc1)c1ccccc1 (configuration not stated)		inactive: -14.1%
CCOC(=O)c1cnc(SC)nc1Nc1cccc2ccccc12	inconclusive: 39.8 µM [inhibitor, partial curve]	
CCc1ccc(NC(=O)Cc2ccc(OC)cc2)cc1		inactive: -8.7%
O=C(/C=C/c1cccs1)NC(=S)NNC(=O)c1ccccc1O	active: 14.1 µM	
Oc1cc2c(cc1O)C1c3ccc(O)c(O)c3OCC1(O)C2 (configuration not stated)	active: 3.98 µM	
CCOC(=O)Cn1cc(/C=C/[N+](=O)[O-])c2ccccc21	inconclusive: 25.1 µM [inhibitor, partial curve]	
O=C1C(=O)N(C2CCN(C(=O)c3cccc(Cl)c3)CC2)CCN1Cc1ccc(F)cc1		inactive: -1.93%
CCOc1cc(/C=C2/SC(=S)N(C)C2=O)ccc1Oc1ccc([N+](=O)[O-])cc1[N+](=O)[O-]	inconclusive: 2.82 µM [inhibitor, full curve]	
CC1CCC/C(=N/Nc2nc3ccccc3s2)C1 (configuration not stated)	inconclusive: 31.6 µM [inhibitor, single point]	
COC(=O)c1cc(-c2ccc(OC)cc2)n[nH]1	inconclusive: 17.8 µM [inhibitor, partial curve]	
O=C(C1CCCN(c2nnc(-n3cccc3)s2)C1)N1CCN(c2ccccc2)CC1 (configuration not stated)	inconclusive: 39.8 µM [inhibitor, partial curve, poor fit]	
COc1ccc(OC)c(C2C(C(=O)c3sc(C)nc3C)=C(O)C(=O)N2CCN2CCOCC2)c1 (configuration not stated)	inconclusive: 28.2 µM [inhibitor, single point]	
CCCCc1ccc(NC(=O)CSc2nc(=O)[nH]c3c2CCCC3)cc1	inconclusive: 28.2 µM [inhibitor, single point]	
O=C(COC(=O)Cn1cnc2ccccc21)Nc1cc2c(cc1Cl)C(=O)c1ccccc1C2=O	inconclusive: 15.8 µM [inhibitor, partial curve]	
Cc1cc2oc(C(=O)N(Cc3ccc(N(C)C)cc3)Cc3ccco3)c(C)c2cc1Cl		inactive: -15.3%
Cc1cc(O)c(C(C)C)cc1NC(=O)Nc1cccc2ccccc12	inconclusive: 25.1 µM [inhibitor, partial curve, poor fit]	
CCC(c1nnnn1Cc1ccco1)N(CCN1CCOCC1)Cc1cc2cc(C)ccc2[nH]c1=O (configuration not stated)	inconclusive: 39.8 µM [inhibitor, single point]	
COc1ccccc1CNC(=O)c1cccc(C)c1[N+](=O)[O-]		inactive: 0.0341%
CCOC(=O)c1ccc(NC(=O)c2oc3c(c2C)-c2nn(Cc4ccccc4Cl)cc2CC3)cc1		inactive: -10.5%
O=C1CCCc2nc(N3CCN(c4ccccc4)CC3)ncc21	inconclusive: 2 µM [inhibitor, full curve]	
CNc1nc(C)nc(N/N=C/c2ccccc2)n1		inactive: -2.69%
O=C(CSc1ccc(-c2ccccc2)nn1)N1CCN(c2ccccc2)CC1		inactive: -10.6%
CCCCCCn1c(=O)[nH]c2c(c1=O)CCC2		inactive: 6.52%
CCCCOc1ccccc1C1CC(=O)Nc2cc(C)c(C)cc21 (configuration not stated)	inconclusive: 44.7 µM [inhibitor, single point]	
